Laboratory results as given in PubChem BioAssay AID463173 (ICCB-Longwood Screening Facility, Harvard Medical School, 2010).
Screen size: about 52,000 compounds; about 4,300 (8.3%) were called active. Rule as the data show it: active = survival mostly below about 52% (no sharp cut-off); inactive = mostly above about 56%. The list shows a part of the results.

Each molecule was assayed on DeltatarO mutant (assay: S. aureus survival, RN4220 and DeltatarO strains – OD600, teichoic acid synthesis inhibitors, primary screen (AID 463173)). Settings: S. aureus RN4220 wild type/DeltatarO growth, OD600, 18 h, active compounds read low, screened at 18.75 µg/mL (by protocol).
In the case of COC(=O)c1c(C)sc(-c2c(-c3ccc4c(c3)OCCO4)[nH]c3c2c(=O)[nH]c(=O)n3C)c1O, the survival is reported as active: 37%. For O=C1OCc2cc(-n3[nH]nnc3=S)ccc21, the survival was inactive: 86%. For Cc1ccc(C)c(N(C)S(=O)(=O)c2ccc3[nH]cc(C(=O)NC4CCCC4)c(=O)c3c2)c1, the survival was inactive: 98%. CCOc1ccc(S(=O)(=O)NCC(c2cccs2)S(=O)(=O)c2ccc(C)cc2)cc1 (centres undefined) was tested, and the survival was inactive: 107%. For CCN1CCN(C(=O)c2c(C)nn(-c3ccc(F)cc3)c2-n2cccc2)CC1, the survival was inactive: 82%. For CC(C)(C)NC(=O)CCSc1nc(-c2ccc3c(c2)OCO3)cc(C(F)(F)F)n1, the survival was active: 15%. In the case of Cc1ccc(NS(=O)(=O)c2ccc3[nH]c4c(c3c2)CCCCC4)cc1, the survival is reported as inactive: 83%. In the case of COc1ccc(S(=O)(=O)c2cn(C)c3cc(N4CCOCC4)c(F)cc3c2=O)cc1, the survival is reported as inactive: 96%. CCc1ccc(OCC(=O)Nc2ccc3oc(-c4ccc(OC)cc4)nc3c2)cc1 was tested, and the survival was inactive: 62%. In the case of CC(=O)N1CCc2cc(S(=O)(=O)N3CCN(c4ccc(C)cc4)C(C)C3)ccc21 (centres undefined), the survival is reported as inactive: 87%. With O=C(COc1ccccc1)Nc1c(Cl)ccc2nsnc12 the survival was inactive: 74%. In the case of O=C(NCc1ccc(F)cc1)C(=O)NCC(c1cccs1)S(=O)(=O)c1cccs1 (centres undefined), the survival is reported as inactive: 94%. With Cc1c(C(=O)OCCOc2ccccc2)[nH]c2c1C(=O)CC(c1ccccc1Cl)C2 (centres undefined) the survival was inactive: 80%. With CCOC(=O)c1cccc(NC(=O)c2nn(-c3ccc(OC)cc3)c(=O)c3c2c2ccccc2n3C)c1 the survival was inactive: 63%. CN(Cc1ccccc1)c1ccc(-c2nc(-c3cccnc3)no2)cc1[N+](=O)[O-] was tested, and the survival was inactive: 62%. With CCN(Cc1ccccc1)S(=O)(=O)c1ccc2[nH]c3c(c2c1)CCCCC3 the survival was inactive: 83%. CCC(C(=O)NCCc1cc(OC)ccc1OC)n1nc(C)c2sc3ccccc3c2c1=O (centres undefined) was tested, and the survival was inactive: 69%. For CN(C)c1ccc(CNC(=O)c2cccn2-c2nnc(N3CCCCC3)s2)cc1, the survival was inactive: 55%. Cc1ccc(C)c(NC(=O)CSc2nc(-c3ccccc3Cl)nc3c2Cc2c(CO)cnc(C)c2O3)c1 was tested, and the survival was inactive: 118%. For CCOC(=O)c1cnc2nc(NCc3ccc(OCC)cc3)[nH]n2c1=O, the survival was inactive: 90%. CCCCOc1ccc(C(=O)NCCc2csc(-c3ccc(OC)cc3)n2)cc1 was tested, and the survival was inactive: 108%. For Cc1ccc(N2CCN(C(=O)c3cnc(N4CCCCC4)c4ccccc34)CC2)c(C)c1, the survival was inactive: 84%. For COc1ccc(CNC(=O)CCCN2C(=O)COc3ccc(C)cc32)cc1, the survival was inactive: 109%. For CCC(=O)Nc1ccccc1-c1nc2ccccc2n(CC(=O)c2ccc(C)cc2)c1=O, the survival was inactive: 50%. CSc1ncc(Cl)c(C(=O)Nc2c(C(=O)Nc3cccc(Cl)c3)oc3ccccc23)n1 was tested, and the survival was inactive: 71%. In the case of COc1cccc(Cn2nnc3c(=O)[nH]c(C4CCN(C(=O)c5ccccc5Cl)CC4)nc32)c1, the survival is reported as active: 14%. In the case of CC1=C(C(N)=O)C(c2ccccc2Br)n2ncnc2N1 (centres undefined), the survival is reported as inactive: 85%. For O=C(NCc1ccccc1Br)c1cnc2sc(N3CCCCCC3)nn2c1=O, the survival was inactive: 94%. With O=C(Nc1ccc(F)c(Cl)c1)N1CC=C(c2c[nH]c3ccccc23)CC1 the survival was inactive: 77%. CC(C)CCNC(=O)c1cc2cc(S(=O)(=O)N3CCCCC3)ccc2n1C was tested, and the survival was inactive: 68%. With Cn1c(=O)oc2cc(S(=O)(=O)N3CCCC(C(=O)NCc4ccc(F)cc4)C3)ccc21 (centres undefined) the survival was inactive: 131%. With CCC(=O)N1c2ccccc2CC1C(=O)NCCc1ccccc1 (centres undefined) the survival was inactive: 69%. With O=C(NCCc1ccccc1Cl)c1sc2ncccc2c1-n1cccc1 the survival was inactive: 144%. In the case of O=C(O)CSC1=NC2CCCCC2N1 (centres undefined), the survival is reported as inactive: 97%. With O=C(NC1CC(=O)N(c2ccccc2)C1)c1ccc(S(=O)(=O)N2CCCCC2)cc1 (centres undefined) the survival was active: 17%. CCN(CC)c1nc2ccccc2nc1C(=O)Nc1cc(OC)c(OC)c(OC)c1 was tested, and the survival was inactive: 104%. Cc1nn(C(=O)c2ccc(Cl)cc2)c(C)c1S(=O)(=O)N1CCCCCC1 was tested, and the survival was inactive: 80%. With Cc1nn2c(C)c(C(=O)NCc3ccco3)cnc2c1-c1ccccc1 the survival was inactive: 126%. In the case of Cc1ccc(N2CCn3c2nc2c3c(=O)n(CCCc3ccccc3)c(=O)n2C)cc1C, the survival is reported as inactive: 64%. In the case of CCn1c(SCC(=O)NC2CCCC2)nnc1-c1ccccc1, the survival is reported as inactive: 75%. COc1cc(OC)c(NC(=O)CCCn2nc(C)c3c(C)n(-c4ccccc4)nc3c2=O)cc1Cl was tested, and the survival was active: 32%. For CCOC(=O)c1ccc(NC(=O)CSc2c3c(nc4cc(Cl)ccc24)CCCC3)cc1, the survival was inactive: 68%. For COc1ccc(-n2nc(C(=O)N3CCCC(C)C3)c3c4ccccc4n(C)c3c2=O)cc1Cl (centres undefined), the survival was inactive: 73%. CSc1ccc(CCNS(=O)(=O)c2ccc3c(c2)C(C)(C)C(=O)N3C)cc1 was tested, and the survival was inactive: 84%. O=c1c2ccccc2n2c(-c3ccc(Cl)cc3)nnc2n1CCc1ccccc1 was tested, and the survival was inactive: 76%. In the case of COc1cc(OC)cc(C(=O)N2CCN(C(=O)COc3ccccc3)CC2)c1, the survival is reported as active: 54%. In the case of COCCn1c(SCC(=O)N2CCCCC2C)nc2sc(C)c(C)c2c1=O (centres undefined), the survival is reported as inactive: 51%. CC(C)c1ccc(NC(=O)C(C)N(c2ccccc2)S(C)(=O)=O)cc1 (centres undefined) was tested, and the survival was inactive: 65%. In the case of CC(C)C(NS(=O)(=O)c1ccc2c(c1)oc(=O)n2C)C(=O)NCCc1ccccc1 (centres undefined), the survival is reported as inactive: 89%. With COc1cc(OC)c(NC(=O)N2CC3CCCN3c3ccccc32)cc1Cl (centres undefined) the survival was inactive: 97%. COc1ccc(-c2nc(CSc3nnc(C)n4c3cc3occc34)c(C)o2)cc1OC was tested, and the survival was inactive: 73%. For COCCCNc1nc(NCc2cccc(Cl)c2)c2cnn(C)c2n1, the survival was inactive: 85%. CCc1ccc(-n2nc(C)c3c(C)cc(=O)n(CC(=O)Nc4ccc(C(C)=O)cc4)c32)cc1 was tested, and the survival was inactive: 78%. With COc1ccc(OCC(=O)NCC(c2ccc(OC)cc2)N2CCCCC2)cc1 (centres undefined) the survival was inactive: 79%. With COc1ccc(C2C(C(=O)Nc3cccnc3)=C(C)Nc3nc(-c4ccccc4)nn32)cc1OC (centres undefined) the survival was inactive: 88%. With Cc1cccc(OCC(=O)N(Cc2ccc(C(C)(C)C)cc2)Cc2ccco2)c1 the survival was inactive: 67%. With COc1ccccc1NC(=O)C1=C(C)Nc2nc(SCc3ccccc3Cl)nn2C1c1ccccn1 (centres undefined) the survival was inactive: 171%. With Cn1c(NN)nc2sc3c(c2c1=O)CCCC3 the survival was inactive: 89%. Cc1c(C(=O)Nc2ccc(C(C)C)cc2)sc2nc3n(c(=O)c12)CCC3 was tested, and the survival was inactive: 78%. In the case of CCC(CC)c1nn2c(=O)cc(COc3ccc(NC(=O)c4ccc(C)cc4)cc3)nc2s1, the survival is reported as inactive: 96%. Cc1cn2c(=O)cc(COC(=O)c3cccc(NC(=O)c4ccccc4Cl)c3)nc2s1 was tested, and the survival was inactive: 102%. With CCc1ccc(CNC(=O)CN2C(=O)CSc3c2c(C)nn3-c2ccccc2)cc1 the survival was inactive: 99%. In the case of COc1ccc(NC(=O)CC2C(=O)N(c3cccc(C)c3)C(=O)N2Cc2cccnc2)cc1 (centres undefined), the survival is reported as inactive: 75%. For CC1CCC(NC(=O)CN2CCC(n3nnc4ccccc43)CC2)CC1 (centres undefined), the survival was inactive: 76%. With O=S(=O)(NN=C1CCCCC1)c1ccccc1 the survival was inactive: 93%. O=C(Cn1ncc2c3ccccc3n(Cc3ccc(F)cc3)c2c1=O)NCCC1=CCCCC1 was tested, and the survival was inactive: 85%. With Cc1ccc(C)c(CN2C(=O)c3ccccc3S(=O)(=O)c3ccc(C(=O)NCCCN4CCCC(C)C4)cc32)c1 (centres undefined) the survival was inactive: 140%. COc1ccc(CNC(=O)C2CCCN(S(=O)(=O)c3cccc4nsnc34)C2)cc1 (centres undefined) was tested, and the survival was inactive: 85%. In the case of COC(=O)c1c(NC(=O)c2nc(SCc3ccc(F)cc3)ncc2Cl)sc2c1CCCC2, the survival is reported as inactive: 47%. For Cn1nnnc1SCCCNCc1cc(Cl)ccc1OCc1ccc(F)cc1, the survival was inactive: 69%. For CCOc1ccccc1-c1noc(CSc2nnc(-c3ccccc3)n2-c2ccc(F)cc2)n1, the survival was inactive: 96%. In the case of Nc1c(C(=O)Nc2ccc(OC(F)(F)F)cc2)sc2nc(-c3ccncc3)ccc12, the survival is reported as inactive: 71%. Cc1nn2c(=O)cc(COC(=O)Cc3ccccc3)nc2s1 was tested, and the survival was inactive: 78%. O=c1c(-c2cc(-c3ccccc3)nc3c2COc2ccc(Cl)cc2-3)coc2ccc(F)cc12 was tested, and the survival was inactive: 90%. For O=C(Nc1nc2n(n1)C(c1ccc(F)cc1)C=C(c1ccccc1)N2)c1ccco1 (centres undefined), the survival was active: 41%. Cc1c(Cl)cccc1NC(=O)c1ccc2c(c1)CCN2S(=O)(=O)c1ccccc1 was tested, and the survival was active: 39%. In the case of Cc1ccc(CN2CCCN(CC(=O)Nc3ccc(C)cc3C)S2(=O)=O)cc1, the survival is reported as inactive: 89%. CSc1ccc(CCNC(=O)Cn2ccc3cc(S(=O)(=O)N4CCCCCC4)ccc32)cc1 was tested, and the survival was inactive: 124%. In the case of CN(C)CCNc1ncnc2c1cnn2-c1cccc(Cl)c1, the survival is reported as inactive: 85%. For Cc1ccc(-c2noc(C3CCCN(S(=O)(=O)c4ccc5c(c4)OCCO5)C3)n2)cc1 (centres undefined), the survival was inactive: 82%. For CN(C)c1ccc(C(CNC(=O)c2ccccc2C(F)(F)F)N2CCOCC2)cc1 (centres undefined), the survival was inactive: 70%. For O=C(Nc1cccc(Cl)c1Cl)c1cc(S(=O)(=O)NCc2ccc3c(c2)OCO3)ccc1F, the survival was inactive: 88%. For Cc1ccc(-n2c(=O)cc(N3CCN(c4ccccc4Cl)CC3)[nH]c2=O)cc1, the survival was active: 25%. With O=C(C1CC(c2ccc(Cl)cc2)=NO1)N1CCCC1 (centres undefined) the survival was inactive: 85%. With CC(=O)Nc1ccc(NC(=O)c2cccc(C)c2)cc1 the survival was inactive: 85%. With Cc1ccc(CCNC(=O)c2ccc3c(Cl)c4c(nc3c2)CCCC4)cc1 the survival was inactive: 61%. For CCCC(=O)Nc1ccccc1OCc1cc(=O)n2cc(C)ccc2n1, the survival was inactive: 66%. In the case of Cc1ccc(C)c(N2CCN(c3c(CN4CCCC4)c(=O)oc4ccccc34)CC2)c1, the survival is reported as inactive: 91%. With COc1ccccc1CNC(=O)c1ccc2nc(N3CCCCC3)sc2c1 the survival was inactive: 111%.
